Changes are numbered by the printed parent chain. Values belong to the binder of their own block, whether it stands above or below them.
Biological target: PD-1 on PD1-Jurkat cells (GenScript, Cat #RD00702) (UniProt Q15116 25-288, limits assumed)
Test: cell-based or functional assay

Sequence of UniProt Q15116 (Q15116 25-288 limits assumed): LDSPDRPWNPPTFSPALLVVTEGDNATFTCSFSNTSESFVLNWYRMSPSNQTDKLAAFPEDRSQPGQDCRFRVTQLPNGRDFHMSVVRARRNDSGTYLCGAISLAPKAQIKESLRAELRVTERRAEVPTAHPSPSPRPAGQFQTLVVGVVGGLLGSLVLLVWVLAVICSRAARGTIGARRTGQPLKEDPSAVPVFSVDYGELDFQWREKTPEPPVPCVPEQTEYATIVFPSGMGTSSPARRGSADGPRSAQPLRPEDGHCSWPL

- EC50 (nM), activity of blocking PD1 (luciferase reporter, PDL1-CHO + PD1-Jurkat cells): 0.607 nM
B1: 162-17 (bispecific antibody, human IgG1, kappa)
heavy: QVQLVESGGGLVQPGGSLRLSCATSGSRRSIYAMGWFRQAPGKGLEFVAGIGWAYATTYYADSVKGRFTISRDNTKNTLYLQMNSLRAEDTAVYYCAADLDHSGFDYWGQGTLVTVSSGGGGSGGGGSGGGGSEVQLVQSGGGVVQPGGSLRLSCAASGYTFTNYGMNWVRQAPGKGLEWVGWINTYTGEPTYAADFKRRFTFSLDTSKSTAYLQMNSLRAEDTAVYYCAKYPHYYGSSHWYFDVWGQGTLVTVSSASTKGPSVFPLAPSSKSTSGGTAALGCLVKDYFPEPVTVSWNSGALTSGVHTFPAVLQSSGLYSLSSVVTVPSSSLGTQTYICNVNHKPSNTKVDKKV[omitted - human IgG1 Fc with changes]
light: DIQMTQSPSSLSASVGDRVTITCSASQDISNYLNWYQQKPGKAPKVLIYFTSSLHSGVPSRFSGSGSGTDFTLTISSLQPEDFATYYCQQYSTVPWTFGQGTKVEIKRTVAAPSVFIFPPSDEQLKSGTASVVCLLNNFYPREAKVQWKVDNALQSGNSQESVTEQDSKDSTYSLSSTLTLSKADYEKHKVYACEVTHQGLSSPVTKSFNRGEC

- EC50 (nM), activity of blocking PD1 (luciferase reporter, PDL1-CHO + PD1-Jurkat cells): 1.36 nM
B2: 162-20 (bispecific antibody, human IgG1, kappa)
heavy: QVQLVESGGGLVQPGGSLRLSCATSGSRRSIYAMGWFRQAPGKGLEFVAGIGWAYATTYYADSVKGRFTISRDNTKNTLYLQMNSLRAEDTAVYYCAADLDHSGFDYWGQGTLVTVSSGGGGSGGGGSGGGGSEVQLVESGGGLVQPGGSLRLSCAASGYDFTHYGMNWVRQAPGKGLEWVGWINTYTGEPTYAADFKRRFTFSLDTSKSTAYLQMNSLRAEDTAVYYCAKYPYYYGTSHWYFDVWGQGTLVTVSSASTKGPSVFPLAPSSKSTSGGTAALGCLVKDYFPEPVTVSWNSGALTSGVHTFPAVLQSSGLYSLSSVVTVPSSSLGTQTYICNVNHKPSNTKVDKKV[omitted - human IgG1 Fc with changes]
light: B1 light with M4L

— patent US20260035463A1 (MINGHUI PHARMACEUTICAL HANGZHOU, published 2026)
